The supplement of paper PMC11125491
± gives the standard deviation of the averaged measurements. Growth of baker's yeast expressing single-residue variants of Pneumocystis jirovecii dihydrofolate reductase in 8.8 or 44 µM methotrexate (about 75% and 90% inhibition of the wild type). Selection coefficient per generation; 0 = like wild type, above 0 = less sensitive, below 0 = more sensitive or loss of function. No active / inactive call per row; the paper calls resistant above 0.220 (8.8 µM) or 0.243 (44 µM) together with a significance test. At 44 µM about 15% of codons end with one read or none, so the lowest values are floors (replicate rank correlation 0.74; 0.94 at 8.8 µM).

B1: UniProt A0EPZ9; numbered along this chain (parent)
chain: MDWQKSLTLIVALTLSRGIGLKNDLPWKLKSDMMFFSRVTSGLLVTRSTGQMNVVLMGRKTWESLPAHSRPLKNRINVVISRQEVLDLGGGAYHARSLDDALALLSQIYDSTSKIQLNRVFVIGGGELCKAAMEHSRLNRIIATVIHNEVDCDVFFPIDFRSSQSCLPWRKQDHSVLEAWVGSKVPQGKINENGFIYEFEMWIRDI

Variants of: B1
Test: selection coefficient against synonymous wild-type codons (log2 per generation); higher = faster growth than wild type
Details: with Saccharomyces cerevisiae carrying the variant on a plasmid
Description: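 Pooled growth of yeast carrying single-residue variants of P. jirovecii dihydrofolate reductase (own DFR1 gene intact), two passages at 30 °C, three cultures, sequenced before and after. Codons with under 15 starting reads are left out; codons of one change are averaged.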

Row | Variant | selection coefficient against synonymous wild-type codons (log2) (methotrexate 8.8 µM) | selection coefficient against synonymous wild-type codons (log2) (methotrexate 44 µM)
1 | MDWQKSLTLIVALTLSRGIGLKNDLPWKLKNDMMFFSRVTSGLLVTRSTGQMNVVLMGRKTWESLPAHSRPLKNRINVVISRQEVLDLGGGAYHARSLDDALALLSQIYDSTSKIQLNRVFVIGGGELCKAAMEHSRLNRIIATVIHNEVDCDVFFPIDFRSSQSCLPWRKQDHSVLEAWVGSKVPQGKINENGFIYEFEMWIRDI [S31N] | 0.12 ± 0.05 | 0.0807 ± 0.11
2 | MDWQKSLTLIVALTLSRGIGLKNDLPWKLKSDMMFFSRVTSGLLVTRSTGQMNVVLMGRKTWESLHAHSRPLKNRINVVISRQEVLDLGGGAYHARSLDDALALLSQIYDSTSKIQLNRVFVIGGGELCKAAMEHSRLNRIIATVIHNEVDCDVFFPIDFRSSQSCLPWRKQDHSVLEAWVGSKVPQGKINENGFIYEFEMWIRDI [P66H] | -0.24 ± 0.14 | -0.183 ± 0.09
3 | MDWQKSLTLIVALTLSRGIGLKNDLPWKLKSDMMFFSRVTSGLLVTRSTGQMNVVLMGRKTWESLPAHSRPLKTRINVVISRQEVLDLGGGAYHARSLDDALALLSQIYDSTSKIQLNRVFVIGGGELCKAAMEHSRLNRIIATVIHNEVDCDVFFPIDFRSSQSCLPWRKQDHSVLEAWVGSKVPQGKINENGFIYEFEMWIRDI [N74T] | -0.542 ± 0.18 | -0.181 ± 0.12
4 | MDWQKSLTLIVALTLSRGIGLKNDLPWKLKSDMMFFSRVTSGLLVTRSTGQMNVVLMGRKTWESLPAKSRPLKNRINVVISRQEVLDLGGGAYHARSLDDALALLSQIYDSTSKIQLNRVFVIGGGELCKAAMEHSRLNRIIATVIHNEVDCDVFFPIDFRSSQSCLPWRKQDHSVLEAWVGSKVPQGKINENGFIYEFEMWIRDI [H68K] | -0.045 ± 0.06 | -0.0817 ± 0.11
5 | MDWQKSLTLIVALTLSRGIGLKNDLPWKLKSDMMFFSRVTSGLLVTRSTGQMNVVLMGRKTWESLPAHSRPLKNRINVVIVRQEVLDLGGGAYHARSLDDALALLSQIYDSTSKIQLNRVFVIGGGELCKAAMEHSRLNRIIATVIHNEVDCDVFFPIDFRSSQSCLPWRKQDHSVLEAWVGSKVPQGKINENGFIYEFEMWIRDI [S81V] | -0.697 ± 0.14 | -0.341 ± 0.057
6 | MDWQKSLTLIVALTLSRGIGLKNDLPWKLKSDMMFFSRVTSGLLVTRSTGQMNVVLMGRKTWESLPAHSRPLKNRINVVISRQEVLDLGGGAYHARSLDDALALLSQIYDSTSKIQLNRVFVIGGGELCKAAMEHSRLNYIIATVIHNEVDCDVFFPIDFRSSQSCLPWRKQDHSVLEAWVGSKVPQGKINENGFIYEFEMWIRDI [R140Y] | -0.153 ± 0.08 | -0.102 ± 0.12
7 | MDWQKSLTLIVALTLSRGIGLKNDLPWKLKSDMMFFSRVTSGLLVTRSTGQMNVVLMGRKTWESLPAHSRPLKNRINVVISRQEVLDLGGGAYHARSLDDALALLSQIYDSTSKIQLNRVFVIGGGELCKAAMEHSRLNRIIATVIHNEVDCDVFFPIDFRSSQSCLPWRKQDHSVLEAWYGSKVPQGKINENGFIYEFEMWIRDI [V181Y] | -0.0599 ± 0.075 | -0.111 ± 0.14
8 | MDWQKSLTLIVALTLSRGIGLKNDLPWKLKSDMMFFSRVTSGLLVTRSTGQMNVVLMGRKTWESLPAHSRPLKNRINVVISRQEVLDLGGGAYHARSLDDAWALLSQIYDSTSKIQLNRVFVIGGGELCKAAMEHSRLNRIIATVIHNEVDCDVFFPIDFRSSQSCLPWRKQDHSVLEAWVGSKVPQGKINENGFIYEFEMWIRDI [L102W] | -0.103 ± 0.042 | -0.023 ± 0.17
9 | MDWQKSLTLIVALTLSRGIGLKNDLPWKLKSDMMFFSRVTSGLLVTRSTGQMNVVLMGRKTWESLPAHSRPLKNRINVVISRQEVLDLGGGAYHARSLDDALALLSQIYDSTSKIQLNRVFVIGGGELCKAAMEHSRTNRIIATVIHNEVDCDVFFPIDFRSSQSCLPWRKQDHSVLEAWVGSKVPQGKINENGFIYEFEMWIRDI [L138T] | 0.17 ± 0.031 | 0.222 ± 0.087
10 | MDWQISLTLIVALTLSRGIGLKNDLPWKLKSDMMFFSRVTSGLLVTRSTGQMNVVLMGRKTWESLPAHSRPLKNRINVVISRQEVLDLGGGAYHARSLDDALALLSQIYDSTSKIQLNRVFVIGGGELCKAAMEHSRLNRIIATVIHNEVDCDVFFPIDFRSSQSCLPWRKQDHSVLEAWVGSKVPQGKINENGFIYEFEMWIRDI [K5I] | 0.3 ± 0.018 | 0.188 ± 0.061
11 | MDWQNSLTLIVALTLSRGIGLKNDLPWKLKSDMMFFSRVTSGLLVTRSTGQMNVVLMGRKTWESLPAHSRPLKNRINVVISRQEVLDLGGGAYHARSLDDALALLSQIYDSTSKIQLNRVFVIGGGELCKAAMEHSRLNRIIATVIHNEVDCDVFFPIDFRSSQSCLPWRKQDHSVLEAWVGSKVPQGKINENGFIYEFEMWIRDI [K5N] | 0.565 ± 0.04 | 0.603 ± 0.032
12 | MDWQKSLTLIVALTLSRGIGLKNDLPWKLKSDMMFFSRVTSGLLVTRSTGQMNVVLMGRKTWESLPAHSRPLKNRINVVISRQEVLDLGGGAYHARSLDDALALLSQIYDSTSKIQLNRVFVIGGGELCKAAMEHSRLNRIIATVIHNEVDCDVFFPIDFRSSQSCLPWRKQDHSVLEAWVGSKVPQGKINENGFIYEEEMWIRDI [F199E] | 0.425 ± 0.042 | 0.582 ± 0.026
13 | MDWQKSLTLIVALTLSRGIGLKNDLPWKLKSDMMFFSRVTSGWLVTRSTGQMNVVLMGRKTWESLPAHSRPLKNRINVVISRQEVLDLGGGAYHARSLDDALALLSQIYDSTSKIQLNRVFVIGGGELCKAAMEHSRLNRIIATVIHNEVDCDVFFPIDFRSSQSCLPWRKQDHSVLEAWVGSKVPQGKINENGFIYEFEMWIRDI [L43W] | -0.25 ± 0.19 | -0.141 ± 0.038
14 | MDWQKSLTLIVALTLSRGIGLKNDLPWKLKSDMMFFSRVTSGLLVTRSTGQDNVVLMGRKTWESLPAHSRPLKNRINVVISRQEVLDLGGGAYHARSLDDALALLSQIYDSTSKIQLNRVFVIGGGELCKAAMEHSRLNRIIATVIHNEVDCDVFFPIDFRSSQSCLPWRKQDHSVLEAWVGSKVPQGKINENGFIYEFEMWIRDI [M52D] | -0.0962 ± 0.054 | -0.0779 ± 0.24
15 | MDWQKSLTLIVALTLSRGIGLKNDLPWKLKSDMMFFSRVTSGLLVTRSTGQMNVVLMGRKTWESLPAHSRPLKNRINVVISRQEVLDLGGGAYHARSLDDALALLSQIYDSTSKIQLNRVFVIGGGELCKAAMEQSRLNRIIATVIHNEVDCDVFFPIDFRSSQSCLPWRKQDHSVLEAWVGSKVPQGKINENGFIYEFEMWIRDI [H135Q] | -0.181 ± 0.03 | -0.162 ± 0.2
